Consider 17 molecules from the supplement of paper PMC3694890.

± gives the uncertainty stated by the source. The list shows a part of the results. A small y stands for phosphotyrosine.

First the molecules themselves.
B1: SHIP2_986/A1 (peptide)
chain: yYVLEG
B2: SHIP2_1162/A1 (peptide)
chain: yGRPLS
B3: SRMS_380/A1 (peptide)
chain: ySPSSS
B4: SHIP2_886/A1 (peptide)
chain: yEWISI
B5: SOCS3_204/A1 (peptide)
chain: yEKVTQ
B6: STAP2_310/A1 (peptide)
chain: yVTPIG
B7: SOX4_126/A1 (peptide)
chain: yKYRPR
B8: SOX4_123/A1 (peptide)
chain: yPDYKY
B9: SRC_338/A1 (peptide)
chain: yIVTEY
B10: STAP2_22/A1 (peptide)
chain: yESFLE
B11: SHIP1_865/A1 (peptide)
chain: yDFVKT
B12: SHIP2_671/A1 (peptide)
chain: yAWHKQ
B13: SRC_522/A1 (peptide)
chain: yFTSTE
B14: SRC_439/A1 (peptide)
chain: yGRFTI
B15: BCAR1_372/A1 (peptide)
chain: yDVPPG
B16: BCAR1_387/A1 (peptide)
chain: yDVPRE
B17: SRC_216/A1 (peptide)
chain: yITSRT
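Also: phosphopeptide probes on the chip at 1–4 µM, lysate proteins bound in 20 mM Tris pH 7.0 buffer with 140 mM NaCl, 1% Triton X-100 and 5% glycerol.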

In the first assay the target is GRB2 (endogenous complexes from cell lysate), P62993. Description: GRB2 complex binding differential signal (pY peptide minus Ala control peptide) (fluorescence intensity units); higher = stronger GRB2 complex binding. The settings on record: MCF7.
As for B1, the “GRB2 complex binding differential signal” value is 163 ± 400.
In the case of B2, the “GRB2 complex binding differential signal” value worked out at 5390 ± 590.
Consider B3, for which the “GRB2 complex binding differential signal” value is -1410 ± 880.
On to B4, for which the “GRB2 complex binding differential signal” value is 199 ± 300.
B5: the “GRB2 complex binding differential signal” value came out at 776 ± 630.
With B6, the “GRB2 complex binding differential signal” value is 11000 ± 3900.
In the case of B7, the “GRB2 complex binding differential signal” value worked out at 1850 ± 340.
Take B8: the “GRB2 complex binding differential signal” value came out at 677 ± 420.
As to B9, the “GRB2 complex binding differential signal” value was 127 ± 180.
B10: the “GRB2 complex binding differential signal” value turned out to be 342 ± 300.
Turning to B11, the “GRB2 complex binding differential signal” value was determined as 830 ± 280.
Consider B12, for which the “GRB2 complex binding differential signal” value is -67.5 ± 230.
As for B13, the “GRB2 complex binding differential signal” value was 417 ± 190.
Turning to B14, the “GRB2 complex binding differential signal” value stood at 202 ± 280.
B15: the “GRB2 complex binding differential signal” value came out at 896 ± 350.
For B16, the “GRB2 complex binding differential signal” value is 3090 ± 930.
The same measure, in the same setting: next, B17: 9470 ± 3200.

The same assay, now with this note: MCF10A.
In the case of B1, the “GRB2 complex binding differential signal” value is 52.2 ± 410.
Consider B2, for which the “GRB2 complex binding differential signal” value came out at 1880 ± 750.
For the molecule B3, the “GRB2 complex binding differential signal” value was 2270 ± 1100.
Take B4: the “GRB2 complex binding differential signal” value amounted to 23.1 ± 160.
As to B5, the “GRB2 complex binding differential signal” value was found to be 2130 ± 410.
With B6, the “GRB2 complex binding differential signal” value came to 8280 ± 1900.
On to B7, for which the “GRB2 complex binding differential signal” value is 952 ± 180.
For B8, the “GRB2 complex binding differential signal” value stood at 120 ± 200.
On the same count and under the same terms, next, B9: 126 ± 490.
For B10, the “GRB2 complex binding differential signal” value was 476 ± 210.
Still for that read-out and setting: next, B11: 256 ± 310.
On to B12, for which the “GRB2 complex binding differential signal” value stood at 148 ± 230.
As to B13, the “GRB2 complex binding differential signal” value stood at 725 ± 180.
On to B14, for which the “GRB2 complex binding differential signal” value came to 25.2 ± 190.
Turning to B15, the “GRB2 complex binding differential signal” value worked out at 1250 ± 590.
Same read-out and setting: to B16 belongs 1270 ± 390.
Turning to B17, the “GRB2 complex binding differential signal” value came out at 4700 ± 500.

Staying with this assay, now noted: MDA-MB-231.
As for B1, the “GRB2 complex binding differential signal” value came out at 458 ± 380.
With B2, the “GRB2 complex binding differential signal” value came out at 839 ± 280.
Same read-out and setting: next, B3: 579 ± 470; B4: 213 ± 390; B5: 2350 ± 1800.
Consider B6, for which the “GRB2 complex binding differential signal” value stood at 3250 ± 400.
With B7, the “GRB2 complex binding differential signal” value was 183 ± 230.
On to B8, for which the “GRB2 complex binding differential signal” value is 113 ± 250.
As to B9, the “GRB2 complex binding differential signal” value was 376 ± 290.
In the case of B10, the “GRB2 complex binding differential signal” value was determined as 703 ± 240.
Take B11: the “GRB2 complex binding differential signal” value was determined as 507 ± 430.
As to B12, the “GRB2 complex binding differential signal” value was 67.9 ± 540.
Consider B13, for which the “GRB2 complex binding differential signal” value amounted to 1120 ± 380.
As for B14, the “GRB2 complex binding differential signal” value turned out to be 435 ± 370.
As for B15, the “GRB2 complex binding differential signal” value was found to be 587 ± 680.
Same read-out and setting: next, B16: 943 ± 340.
As to B17, the “GRB2 complex binding differential signal” value is 1420 ± 330.

Still in this assay, the particulars now being: T47D.
On to B1, for which the “GRB2 complex binding differential signal” value is 423 ± 1100.
Regarding B2, the “GRB2 complex binding differential signal” value was determined as 2740 ± 1300.
The same measure, in the same setting: next, B3: 960 ± 1200; B4: 737 ± 1000.
Consider B5, for which the “GRB2 complex binding differential signal” value stood at 1760 ± 1500.
Consider B6, for which the “GRB2 complex binding differential signal” value turned out to be 4510 ± 1200.
In the case of B7, the “GRB2 complex binding differential signal” value is 238 ± 1800.
On to B8, for which the “GRB2 complex binding differential signal” value stood at 736 ± 1700.
As to B9, the “GRB2 complex binding differential signal” value was determined as 590 ± 1200.
Take B10: the “GRB2 complex binding differential signal” value was 533 ± 1100.
Take B11: the “GRB2 complex binding differential signal” value is 1130 ± 1100.
With B12, the “GRB2 complex binding differential signal” value was -215 ± 1200.
In the case of B13, the “GRB2 complex binding differential signal” value amounted to 1110 ± 1100.
Take B14: the “GRB2 complex binding differential signal” value is 562 ± 1200.
As for B15, the “GRB2 complex binding differential signal” value turned out to be 807 ± 1100.
B16: the “GRB2 complex binding differential signal” value stood at 334 ± 860.
Consider B17, for which the “GRB2 complex binding differential signal” value is 3770 ± 1200.
